# Some of the results follow. The data scatter; read single values as rough.
# How the values were obtained:
# Experiment in all cases: mutation enrichment score (mutant vs wild-type peptide binding to bait); baits are purified protein domains named by gene / domain / UniProt id / residues; peptides come from disordered regions of human proteins; higher = mutation enhances binding relative to wild type
# EZR_FERM_1_P15311_2_295 = details: paper call: no_effect, wild-type window: …
# MSN_FERM_1_P26038_1_322 = target: T1, MSN_FERM_1_P26038_1_322; details: wild-type window: …
# T1 chain: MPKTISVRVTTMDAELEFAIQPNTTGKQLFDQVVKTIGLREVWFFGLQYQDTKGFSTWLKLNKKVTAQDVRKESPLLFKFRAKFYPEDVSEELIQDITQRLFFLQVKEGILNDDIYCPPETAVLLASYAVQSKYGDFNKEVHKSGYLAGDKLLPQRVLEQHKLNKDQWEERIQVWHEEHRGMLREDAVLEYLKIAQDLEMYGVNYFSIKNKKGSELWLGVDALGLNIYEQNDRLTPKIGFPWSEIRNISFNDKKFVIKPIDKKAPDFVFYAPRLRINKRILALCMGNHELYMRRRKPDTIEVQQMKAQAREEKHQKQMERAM
# [1] = target: WDR5_WD_1234567_P61964_21_334; details: number of wild-type / mutant comparisons summed (bounds the score): 6; paper call: no_effect; wild-type window: …
# [2] = target: T2, G3BP2_NTF2_1_Q9UN86_1_139; details: wild-type window: …
# T2 chain: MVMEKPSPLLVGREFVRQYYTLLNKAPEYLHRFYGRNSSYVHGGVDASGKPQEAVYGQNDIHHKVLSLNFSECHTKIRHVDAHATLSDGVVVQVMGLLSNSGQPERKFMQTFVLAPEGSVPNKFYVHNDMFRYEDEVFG
# RDX_FERM_1_P35241_5_295 = target: T3, RDX_FERM_1_P35241_5_295; details: wild-type window: …
# T3 chain: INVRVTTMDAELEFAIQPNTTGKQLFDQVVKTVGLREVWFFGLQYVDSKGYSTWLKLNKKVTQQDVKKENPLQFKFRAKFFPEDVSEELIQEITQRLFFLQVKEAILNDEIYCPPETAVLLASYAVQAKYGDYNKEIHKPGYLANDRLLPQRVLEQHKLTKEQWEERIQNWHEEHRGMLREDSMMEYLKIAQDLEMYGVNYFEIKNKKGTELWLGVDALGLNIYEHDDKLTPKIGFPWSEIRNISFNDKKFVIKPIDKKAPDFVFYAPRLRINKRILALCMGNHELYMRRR
# [3] = target: USP7_MATH-TRAF__Q93009_53_206; details: paper call: no_effect, wild-type window: …
# Sequence of USP7_MATH-TRAF__Q93009_53_206 (chain, as listed by the source): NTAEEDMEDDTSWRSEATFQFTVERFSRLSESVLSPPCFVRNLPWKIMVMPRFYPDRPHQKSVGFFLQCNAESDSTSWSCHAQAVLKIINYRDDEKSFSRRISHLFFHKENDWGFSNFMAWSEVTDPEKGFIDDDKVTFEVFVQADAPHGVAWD
# [4] = target: FKBP1A_full-length__P62942_1_108, P62942; details: wild-type window: …
# Sequence of FKBP1A_full-length__P62942_1_108, P62942 (P62942 whole entry): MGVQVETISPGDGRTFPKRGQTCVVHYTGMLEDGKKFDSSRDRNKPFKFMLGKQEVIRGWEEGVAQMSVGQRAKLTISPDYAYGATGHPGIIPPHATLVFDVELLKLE
# [5] = target: T4, ZMYND11_coiled-coil-MYND__Q15326_480_602; details: number of wild-type / mutant comparisons summed (bounds the score): 6; paper call: no_effect; wild-type window: …
# T4 chain: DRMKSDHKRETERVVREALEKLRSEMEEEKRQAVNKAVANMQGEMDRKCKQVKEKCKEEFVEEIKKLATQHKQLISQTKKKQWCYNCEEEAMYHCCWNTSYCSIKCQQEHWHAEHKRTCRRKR
# [6] = target: GABARAP_ATG8__O95166_2_115; details: number of wild-type / mutant comparisons summed (bounds the score): 6; paper call: no_effect; wild-type window: …
# Sequence of GABARAP_ATG8__O95166_2_115 (chain, as listed by the source): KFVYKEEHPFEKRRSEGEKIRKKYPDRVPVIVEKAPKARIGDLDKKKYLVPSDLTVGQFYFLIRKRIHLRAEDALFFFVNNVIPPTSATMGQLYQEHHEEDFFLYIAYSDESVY
# [7] = target: MAP1LC3B_ATG8__Q9GZQ8_2_119; details: number of wild-type / mutant comparisons summed (bounds the score): 6; paper call: no_effect; wild-type window: …
# [8] = number of wild-type / mutant comparisons summed (bounds the score): 5
# [9] = number of wild-type / mutant comparisons summed (bounds the score): 6, paper call: enhanced
# [10] = number of wild-type / mutant comparisons summed (bounds the score): 6, paper call: diminished
# [11] = number of wild-type / mutant comparisons summed (bounds the score): 6, paper call: no_effect
# [12] = number of wild-type / mutant comparisons summed (bounds the score): 10
# [13] = number of wild-type / mutant comparisons summed (bounds the score): 12, paper call: no_effect
# [14] = number of wild-type / mutant comparisons summed (bounds the score): 12, paper call: enhanced
# [15] = number of wild-type / mutant comparisons summed (bounds the score): 12, paper call: diminished
# Sequence of EZR_FERM_1_P15311_2_295 (chain, as listed by the source): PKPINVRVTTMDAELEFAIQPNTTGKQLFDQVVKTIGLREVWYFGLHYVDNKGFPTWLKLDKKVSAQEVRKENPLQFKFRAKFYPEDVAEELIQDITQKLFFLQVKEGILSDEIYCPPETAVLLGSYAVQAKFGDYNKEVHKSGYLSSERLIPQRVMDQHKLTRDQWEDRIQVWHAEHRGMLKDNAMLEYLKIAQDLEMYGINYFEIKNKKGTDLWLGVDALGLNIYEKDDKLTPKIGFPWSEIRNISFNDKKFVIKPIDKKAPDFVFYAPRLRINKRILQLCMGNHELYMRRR
binder,measurement,setting,value
MFNFETFGNSMICLFQITTSPGWDGLLAPILNSKPPDCDPN [A1724P A1724P],mutation enrichment score,EZR_FERM_1_P15311_2_295; [8],3
same,mutation enrichment score,MSN_FERM_1_P26038_1_322; [9],6
same,mutation enrichment score,[1],1
MDHEDFRACLISMGYDLGEAKFARIMTLVDPNGQGTVTFQS [E793K E793K],mutation enrichment score,EZR_FERM_1_P15311_2_295; [8],-4
same,mutation enrichment score,[2]; [10],-6
same,mutation enrichment score,MSN_FERM_1_P26038_1_322; [11],-2.9
APIVAHLWEYVMSIDSLQLGCAEDGHCKGDINPNIPYPTRL [Y498C Y498C],mutation enrichment score,EZR_FERM_1_P15311_2_295; [8],2
same,mutation enrichment score,MSN_FERM_1_P26038_1_322; [11],1
LHRNSIQFTDGYEVKEDIGVDSYSVCKRCIHKATNMEFAVK [G431D G431D],mutation enrichment score,EZR_FERM_1_P15311_2_295; [8],-3.7
same,mutation enrichment score,MSN_FERM_1_P26038_1_322; [11],-5.9
KKDLPLDTSDSSSDTDSFYGVVERPVDISLSPYPTDNEDYE [A155V A155V],mutation enrichment score,EZR_FERM_1_P15311_2_295; [8],2
same,mutation enrichment score,MSN_FERM_1_P26038_1_322; [9],6
SVTQVSSVSTDSAGSSYSISSILGITSPSADTNKRKRDEGI [G183S G183S],mutation enrichment score,EZR_FERM_1_P15311_2_295; [8],1
same,mutation enrichment score,MSN_FERM_1_P26038_1_322; [11],1.1
same,mutation enrichment score,RDX_FERM_1_P35241_5_295; [11],2.5
same,mutation enrichment score,[3]; [12],-2.9
MAFLVIPNSTRDDSGKYSLTPVNPAGEKAVFVNVRVLDTPG [L19607P L19607P],mutation enrichment score,EZR_FERM_1_P15311_2_295; [8],-0.94
same,mutation enrichment score,MSN_FERM_1_P26038_1_322; [11],0.73
same,mutation enrichment score,RDX_FERM_1_P35241_5_295; [11],1.9
ESKVCNAVVTGLSSGQEYQFHVKAYNEKGKSDPRVLGVPVI [R25211H R25211H],mutation enrichment score,EZR_FERM_1_P15311_2_295; [8],2
same,mutation enrichment score,MSN_FERM_1_P26038_1_322; [11],4
VETAAGAQDGQRTSSGSDTDVYSFHSATEQEDLLSDIQQAI [I183V I183V],mutation enrichment score,EZR_FERM_1_P15311_2_295; [8],0
PAPEPPTQHSYTYNVSNLDVGQLSAPPPEEPSPPPSPLAPS [R4904G R4904G],mutation enrichment score,EZR_FERM_1_P15311_2_295; [12],2
same,mutation enrichment score,MSN_FERM_1_P26038_1_322; [11],-0.19
same,mutation enrichment score,RDX_FERM_1_P35241_5_295; [13],-0.44
MNDFFHSFLIVFRVLCGEWIKTMWDCMEVAGQAMCLTVFMM [E954K E954K],mutation enrichment score,EZR_FERM_1_P15311_2_295; [12],0
LGKDEKEQSEKAAMYDIISSTSKDSTKLTLRLSRVRSSDMD [P351T P351T],mutation enrichment score,EZR_FERM_1_P15311_2_295; [12],3
same,mutation enrichment score,MSN_FERM_1_P26038_1_322; [11],-2.9
same,mutation enrichment score,RDX_FERM_1_P35241_5_295; [13],-0.27
LLSVKQEKEIQMKMIVTRGEYVLQNTSPEGIPTIQQQLQSV [S3346Y S3346Y],mutation enrichment score,EZR_FERM_1_P15311_2_295; [12],4
same,mutation enrichment score,MSN_FERM_1_P26038_1_322; [14],7
same,mutation enrichment score,RDX_FERM_1_P35241_5_295; [14],7
EMQKVDQHEWTKCNTTPTKIQEYTLTHLPQGAEYRFRVLAC [R31017Q R31017Q],mutation enrichment score,EZR_FERM_1_P15311_2_295; [12],2
same,mutation enrichment score,MSN_FERM_1_P26038_1_322; [13],-5
same,mutation enrichment score,RDX_FERM_1_P35241_5_295; [13],-2
IIHEGLDYYALHIRDTLPEDMGYYRVTATNTAGSTSCQAHL [T32790M T32790M],mutation enrichment score,EZR_FERM_1_P15311_2_295; [12],-2.9
same,mutation enrichment score,RDX_FERM_1_P35241_5_295; [13],-1.8
same,mutation enrichment score,[3]; [8],1.7
NLIMASLPGVMTIGPGEPASPGPTFTNTGASTLVIGLASTQ [L422P L422P],mutation enrichment score,[4]; [10],-6
DRGEDGPKPMPPYSSMFILSMTNPLRRLCHYILNLRYFEMC [T1228M T1228M],mutation enrichment score,[4]; [11],2
MTIGPGEPASLGPTFTNTGACTLVIGLASTQAQSVPVINSM [S432C S432C],mutation enrichment score,[4]; [11],-4.6
KLEVTEMTKNSATLAWLPPLCDGGAKIDGYITSYREEEQPA [R19751C R19751C],mutation enrichment score,[4]; [11],-3.9
same,mutation enrichment score,[3]; [12],-4
HFGWPGWEMGPPGNWSPRPPCAGEARPGPTAESASGPSEDP [R212C R212C],mutation enrichment score,"[4]; number of wild-type / mutant comparisons summed (bounds the score): 18, paper call: enhanced",7
MEFDTRERWENPLMGWASTAHPLSNMVLTFSTKEDAVSFAE [D119H D119H],mutation enrichment score,[2]; [11],-5.6
TLTVEAPMPKLATQSNEITILVTFESRAQLGGPEAAKSDET [P182L P182L],mutation enrichment score,[2]; [11],-2
same,mutation enrichment score,[5],-1
TLTVEAPMPKLATQSNEITISVTFESRAQLGGPEAAKSDET [P182S P182S],mutation enrichment score,[2]; [11],-2
same,mutation enrichment score,[5],0
EGTLTVEAPMPKLATQSNEISIPVTFESRAQLGGPEAAKSD [T180S T180S],mutation enrichment score,[2]; [11],-2
same,mutation enrichment score,[5],-1
QLLERFYDPLAGTVFVDFGFHLLDGQEAKKLNVQWLRAQLG [Q1100H Q1100H],mutation enrichment score,[2]; [11],5.5
same,mutation enrichment score,[6],2.9
same,mutation enrichment score,[7],0.22
IFDSDWNPHQDLQAQDRAHRVGQQNEVRVLRLCTVNSVEEK [I1193V I1193V],mutation enrichment score,[2]; [11],1
MFPSPALTPTPFSVKDILNLQQQQRSLAAAGELSARLEATL [E21Q E21Q],mutation enrichment score,[2]; [11],-1
MFPSPALTPTPFSVKDILNLSQQQRSLAAAGELSARLEA [N19S N19S],mutation enrichment score,[2]; [11],-1
FPSPALTPTPFSVKDILNLEPQQRSLAAAGELSARLEATLA [Q22P Q22P],mutation enrichment score,[2]; [11],-1
FPSPALTPTPFSVKDILNLERQQRSLAAAGELSARLEATLA [Q22R Q22R],mutation enrichment score,[2]; [11],-1
SGNVRSPASPNEFAFGSYVPLFAKTSERSNPFSQKSSFLDF [S559L S559L],mutation enrichment score,[2]; [11],-5
IFQDVLLQFLDTQAPMLTDPQSESERVEFFNLVLLFCELIR [R585Q R585Q],mutation enrichment score,[2]; [11],3
VGEFPVLFFGSNDYLWTHQAQVFPYMEGDVSSKDKMGKGVD [R1811Q R1811Q],mutation enrichment score,[2]; [11],4.7
MRHDVGEFPVLFFGSNDYLWPHQARVFPYMEGDVSSKDKMG [T1807P T1807P],mutation enrichment score,[2]; [11],-1
APMPKLATQSNEITIPVTFELRAQLGGPEAAKSDETAAK [S187L S187L],mutation enrichment score,[2]; [15],-7
APMPKLATQSNEITIPVTFEWRAQLGGPEAAKSDETAAK [S187W S187W],mutation enrichment score,[2]; [15],-7
AEICHPRAVPSNIDKMRHDVEEFPVLFFGSNDYLWTHQARV [G1792E G1792E],mutation enrichment score,[2]; [15],-7.8
AEICHPRAVPSNIDKMRHDVVEFPVLFFGSNDYLWTHQARV [G1792V G1792V],mutation enrichment score,[2]; [15],-6
DDEEAPKPSSDLEAGKQLPFVYGDIPPGMVSEPLEDLDPYY [I62V I62V],mutation enrichment score,[2]; [14],6.9
LSAPSAPIFQDVLLQFLDTQSPMLTDPRSESERVEFFNLVL [A578S A578S],mutation enrichment score,[2]; [14],8
